Here are results for two molecules from patent US9353185B2, “Antibodies” (Affitech Research AS, priority 2010, dated 2016).

In one data set the target is T1, mouse CXCR4 (Mus musculus, UniProt P70658).
T1 construct: expressed in transfected cells; host or cells: HEK-293 (HEK293T/17), transient transfection with Fugene
The data set can be described thus: Species cross reactivity: binding to HEK-293 cells transiently expressing mouse CXCR4. The settings on record: scFv level; transiently transfected HEK-293 cells. The protocol: The antibody candidates were tested on scFv level for their ability to cross-react with CXCR4 from monkey and mouse.
HEK293T/17 cells were maintained as described above.
FACS-binding analyses (EasyCyte) were performed using HEK-293 cells transiently transfected with plasmids encoding either, mouse (Gene bank accession number BC031665) or monkey (Macaca mulatta) CXCR4 (NCBI Accession number NP_001036110). Two experiments were performed, one using α-cMyc and PE-labelled goat anti-mouse IgG antibody, the second using a directly conjugated RPE-c-Myc antibody for detection. In addition, cross-reactivity on IgG level was analysed. In the latter case, antibody binding was detected with PE-conjugated goat anti-human IgG antibody.

Another data set has as its system CXCR4+ Ramos cell line. Description: Induction of apoptosis (Annexin V / PI staining). The data set is classed as cell-based, human. The note with it: IgG1 0.08 to 10 μg/ml, 48 hrs, versus background level. The protocol: The ability of anti-CXCR4 antibodies to induce apoptosis was assessed on the CXCR4^+ Ramos cell line.
Ramos cells were cultivated as described above.
The Ramos cells were harvested by centrifugation, washed twice in RPMI-1640 culture medium with 10% FCS and resuspended in RPMI-1640 medium with 10% FCS to a density of 3×10^5 cells/ml. The cell suspension (250 μl) was mixed with the same volume of either antibody to be tested in dilutions (final concentration of 0.08 to 10 μg/ml) or staurosporin (25 nM) in wells of a 24-well plate and incubated at 37° C. for 48 hrs. The cells were collected by centrifugation and washed in Annexin V Binding Buffer (10 mM Hepes, 140 mM NaCl, 2.5 mM CaCl2, 0.2% BSA, pH 7.4). The cells were harvested again and resuspended in 300 μl Annexin V Binding Buffer. Both FITC-conjugated Annexin V and propidium iodide (PI) were mixed with 240 μl cell suspension resulting in a final concentration of PI of 0.2 μg/ml. The samples were analyzed immediately after adding the ligand using the 515-545 nm and 610/20 nm band pass filters on a FACSCanto II flow cytometer (BD Biosciences). The apoptotic cells were defined as Annexin V positive/PI negative and the dead cells were defined as PI positive.

For another data set, the target named is T2, CXCR4 (Homo sapiens, UniProt P61073).
T2 construct: CRL-1596 (Ramos); host or cells: Ramos, Jurkat 6E-1, CCRF-CEM
The data set can be described thus: Inhibition of SDF-1α ligand induced Ca++ flux in CCRF-CEM cells (Fluo-4). The data set is classed as cell-based. The note with it: for inhibition of SDF-1α-induced signalling, IgG level: IgG 10 or 100 μg/ml (9N10: 1 or 10 μg/ml); for antagonistic activity on SDF-1α induced Ca++ flux, scFv level: scFv 4 μg/ml; for antagonistic effect on Ca++ signalling induced by SDF1α binding to CXCR4 (overall): scFv and/or IgG. The protocol:
9N10 was only tested on IgG level. The experiment was performed using the naturally CXCR4^+ positive cell line CCRF-CEM.
The CCRF-CEM target cells, were harvested by centrifugation and washed twice in RPMI-1640 culture medium. Either 1 ml with 2.5×10^6 cells (for IgGs) or 10 ml with 2.5×10^7 cells (for scFvs) were mixed with Fluo-4-AM (acetoxymethyl ester; Invitrogen), Pluronic F-127 (Invitrogen) and Probenecid to final concentrations of 1 μM, 0.02% and 1 mM respectively. The cells were incubated at 37° C. for 60 mM on a vertical rotating wheel (7 rpm). All subsequent steps were done in the presence of 1 mM Probenecid. The cells were washed twice in RPMI-1640 with 10% fetal calf serum (FCS), once in an assay buffer (145 mM NaCl, 4 mM KCl, 1 mM NaH2PO4, 0.8 mM MgCl2, 25 mM Hepes, 22 mM glucose) and then resuspended to a final density of 4×10^6 cells/ml. Equal volumes of cells, assay buffer with or without antibodies and ligand (SDF-1α) were mixed. The first two components (cells and antibodies) were pre-incubated for 15 min prior to adding the ligand, SDF-1α (final concentration 50 ng/ml). The final concentrations of antibodies were 10 μg/ml or 100 μg/ml for IgGs and 4 μg/ml for scFvs. The samples were immediately analyzed using the 515-545 nm band pass filter on a FACSCanto II (BD Biosciences). The areas under the curves (AUC) were integrated using software Prism (GraphPad) and plotted as percentage of AUC for maximal stimulation with SDF-1α alone.
The experiment was performed as described above, but the antibodies were used in a titration series with concentrations of 100, 20, 4, 0.8, 0.16, 0.032, 0.064 and 0.00128 μg/ml.

Entries after “also recorded” stand apart in the source; their conditions may differ.

T2 sequence (P61073 whole entry): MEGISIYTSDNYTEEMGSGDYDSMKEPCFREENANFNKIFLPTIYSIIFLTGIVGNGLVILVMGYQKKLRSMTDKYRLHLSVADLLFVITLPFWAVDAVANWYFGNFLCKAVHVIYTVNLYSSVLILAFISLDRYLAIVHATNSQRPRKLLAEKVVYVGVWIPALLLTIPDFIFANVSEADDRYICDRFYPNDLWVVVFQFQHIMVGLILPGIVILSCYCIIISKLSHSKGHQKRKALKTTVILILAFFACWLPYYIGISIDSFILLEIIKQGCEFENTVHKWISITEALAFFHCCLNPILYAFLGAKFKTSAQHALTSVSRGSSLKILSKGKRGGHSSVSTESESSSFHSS
T1 sequence (P70658 whole entry): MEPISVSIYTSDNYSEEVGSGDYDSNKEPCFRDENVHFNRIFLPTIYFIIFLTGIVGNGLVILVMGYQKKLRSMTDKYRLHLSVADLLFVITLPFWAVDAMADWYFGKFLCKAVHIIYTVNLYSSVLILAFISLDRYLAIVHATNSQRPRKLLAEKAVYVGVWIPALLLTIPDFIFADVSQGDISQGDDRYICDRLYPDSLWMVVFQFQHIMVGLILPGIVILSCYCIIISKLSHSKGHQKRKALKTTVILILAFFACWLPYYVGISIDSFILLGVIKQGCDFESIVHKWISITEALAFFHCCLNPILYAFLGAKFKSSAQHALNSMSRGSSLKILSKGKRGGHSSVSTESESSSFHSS

B1: C-9P21: human anti-CXCR4 antibody; scFv SEQ ID NO: 35; IgG1/kappa heavy chain SEQ ID NO: 108, light chain SEQ ID NO: 109 (antibody)
heavy: QVQLQESGGGLVHPGGSLRLSCAASGFTFSSYWMHWVRQAPGKGLVWVSRINSDGSSTSYADSVKGRFTISRDNAKNTLYLQMNSLRAEDTAVYYCARKILGVGARSRRYFDYWGQGTMVTVSS[human IgG1 constant region left out]
light: ETTLTQSPGTLSLSPGERATLSCRASQSVVSNYLAWYQQKPGQAPRLLISGASNRATGISDRFSGSGSGADFTLTISRVEPEDSAVYYCQQFDKSTWTFGQGTKVEIKRTVAAPSVFIFPPSDEQLKSGTASVVCLLNNFYPREAKVQWKVDNALQSGNSQESVTEQDSKDSTYSLSSTLTLSKADYEKHKVYACEVTHQGLSSPVTKSFNRGEC
modifications: antibody sequence
As for B1, in the data set with mouse CXCR4, the “cross-reactivity with mouse CXCR4” value is “intermediate”. In addition, in the data set on CXCR4+ Ramos cell line, the “induction of apoptosis (Annexin V positive/PI negative cells)” value is “no apoptosis was induced above the background level”. Moreover, in the data set with CXCR4, the “inhibition of SDF-1α-induced signalling, IgG level” value is on record as “inhibition of SDF-1α-induced signalling was demonstrated”; the “antagonistic activity on SDF-1α induced Ca++ flux, scFv level” value was “strong antagonistic activity”; the “antagonistic effect on Ca++ signalling induced by SDF1α binding to CXCR4 (overall)” value is on record as “capable of inhibiting ligand induced signalling via CXCR4; also recorded: most prominent effect”.

B2: D-1K21: human anti-CXCR4 antibody; scFv SEQ ID NO: 68; IgG1/kappa heavy chain SEQ ID NO: 120, light chain SEQ ID NO: 121 (antibody)
heavy: [about 100 residues left out]RNLIAARPRNRGRDAFDIWGQGTMVTVSS[human IgG1 constant region left out]
light: DIQMTQSPSTLSASVGDRVTITCRASQSIGGSLAWYQQKPGKGPNLLIYAASTLQSGVPSRFSGSGSGTEFTLTISSLQPEDSATYYCQHYESYPLSFGGGTKLEIKRTVAAPSVFIFPPSDEQLKSGTASVVCLLNNFYPREAKVQWKVDNALQSGNSQESVTEQDSKDSTYSLSSTLTLSKADYEKHKVYACEVTHQGLSSPVTKSFNRGEC
modifications: antibody sequence
With B2, the “cross-reactivity with mouse CXCR4” value with mouse CXCR4 is “good cross-reactivity”. The “induction of apoptosis (Annexin V positive/PI negative cells)” value in the data set on CXCR4+ Ramos cell line is given as “no apoptosis was induced above the background level”. In addition, in the data set with CXCR4, the “inhibition of SDF-1α-induced signalling, IgG level” value was “only marginally inhibitory at high concentration”; the “antagonistic activity on SDF-1α induced Ca++ flux, scFv level” value was “strong antagonistic activity”; the “antagonistic effect on Ca++ signalling induced by SDF1α binding to CXCR4 (overall)” value was “capable of inhibiting ligand induced signalling via CXCR4”.
